The record followed here is PubChem BioAssay AID488969 (Vanderbilt High Throughput Screening Facility, 2010).

Molecules are shown by their SMILES. Whole data set: some 110,000 compounds, median “z-score” near -0.1, cut for the highest 2% near 2. This is one part of the list. The source made the active and inactive calls.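 How the source made its calls: active means z-score in the third read window above 3 or below -3; inactive means the rest.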

In this experiment the target is Metabotropic glutamate receptor 8 (Rattus norvegicus) (UniProt P70579). The experiment can be described thus: rat mGluR8 modulators via GIRK flux, primary screen, cell-based, thallium flux, HTS (AID 488969). The following applies: HEK293 rat mGluR8, GIRK (G protein-gated inwardly rectifying potassium channel) thallium flux, FluoZin2; at 10 µM; stronger effect = higher value; submaximal glutamate (EC20) added with thallium.
Sequence of UniProt P70579 (P70579 whole entry, looked up): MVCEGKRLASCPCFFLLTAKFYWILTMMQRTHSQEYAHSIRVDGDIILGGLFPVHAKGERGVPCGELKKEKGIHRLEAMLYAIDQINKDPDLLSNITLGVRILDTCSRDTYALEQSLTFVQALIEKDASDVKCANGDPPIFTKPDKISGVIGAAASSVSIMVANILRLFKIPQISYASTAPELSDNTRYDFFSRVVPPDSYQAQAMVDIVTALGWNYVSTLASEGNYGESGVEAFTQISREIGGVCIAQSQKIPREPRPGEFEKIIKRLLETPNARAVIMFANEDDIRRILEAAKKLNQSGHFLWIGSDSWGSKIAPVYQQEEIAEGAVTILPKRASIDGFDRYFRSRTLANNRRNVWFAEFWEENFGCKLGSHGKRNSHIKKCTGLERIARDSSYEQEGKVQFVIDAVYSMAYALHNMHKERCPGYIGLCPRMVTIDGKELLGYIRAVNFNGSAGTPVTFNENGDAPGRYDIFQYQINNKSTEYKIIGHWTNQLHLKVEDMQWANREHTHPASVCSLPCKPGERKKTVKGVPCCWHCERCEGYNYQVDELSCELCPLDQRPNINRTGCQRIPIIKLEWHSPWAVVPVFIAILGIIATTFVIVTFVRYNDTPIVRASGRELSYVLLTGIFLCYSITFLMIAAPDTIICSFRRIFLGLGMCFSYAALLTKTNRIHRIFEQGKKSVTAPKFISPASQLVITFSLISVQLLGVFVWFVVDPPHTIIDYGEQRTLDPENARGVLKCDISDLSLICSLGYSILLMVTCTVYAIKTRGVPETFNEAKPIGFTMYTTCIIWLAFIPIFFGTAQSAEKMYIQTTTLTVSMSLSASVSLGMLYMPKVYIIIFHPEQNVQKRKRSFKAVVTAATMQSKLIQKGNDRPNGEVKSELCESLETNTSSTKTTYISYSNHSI
`O=C(NCc1ccco1)C1(c2ccc(Cl)cc2)CCCC1` gave a z-score of -0.103.

Take `CNC(=O)c1ccc(OC2CSC2)cc1`: the z-score was found to be 0.829.

`O=C(NC(=S)Nc1nc(-c2ccccc2)cs1)c1cccs1` yielded a z-score of 1.03.

In the case of `CC1=CN2C(=N)/C(=C\c3cn(CCCOc4ccccc4)c4ccccc34)C(=O)N=C2S1`, the z-score is -0.442.

`O=C(Nc1cccnc1)c1cccc(S(=O)(=O)N2CCOCC2)c1` registered a z-score of 0.00196.

Take `CCOC(=O)c1c(-c2ccccc2)csc1NC(=S)NC`: the z-score is active: 7.44.

`O=S(=O)(c1ccc(Br)cc1)n1c(Cc2ccccc2)nc2ccccc21` returned a z-score of 0.0838.

Consider `Brc1cccc(Cn2c(-c3cncs3)nc3ccccc32)c1`, for which the z-score is -0.0297.

`Cc1nn(C)c(C)c1NC(=O)Nc1cccc(C(F)(F)F)c1` registered a z-score of -0.0638.

As for `COc1cccc(OC)c1C(=O)NC(=S)Nc1ccc2c(c1)Cc1ccccc1-2`, the z-score amounted to 0.243.

Regarding `Cc1ccc(NC(=S)Nc2c(C)n(C)n(-c3ccccc3)c2=O)cc1`, the z-score came out at 0.0715.

Compound `CCCn1c(SCC(=O)N2c3ccc(F)cc3CCC2C)nnc1-c1ccccn1` (centres undefined) gave a z-score of -0.821.

Take `CCCN(CC1CC1)C(=O)CSc1nnc(-c2cc(-c3cccs3)nc3ccccc23)o1`: the z-score was -0.177.

`C=CCc1c(C)nc(C)nc1N/N=C/c1ccccc1` displayed a z-score of -0.683.

In turn, `CCCCC1CC(CSc2ncn[nH]2)OC1=O` (centres undefined) had a z-score of -0.0735.

Take `CC(C)Cc1ccc(C(C)C(=O)OCC(=O)c2c[nH]c3ccccc23)cc1` (centres undefined): the z-score was found to be 0.102.

The compound `CN(C)CCNC(=O)c1cc2c(=O)n(C)c3ccccc3c2n1C` yielded a z-score of 0.703.

In turn, `CC(=O)Nc1ccc(S(=O)(=O)NNC(=O)c2ccc(S(=O)(=O)N3CCCCC3)cc2)cc1` registered a z-score of 0.179.

`COc1ccc2cc(C(=O)OC(C)C)sc(=O)c2c1OC` yielded a z-score of -0.229.

`CCCCC(CC)C(=O)Nc1ccccc1C(=O)NC(C)C` (centres undefined) yielded a z-score of -0.0261.

Compound `Cc1noc(C)c1S(=O)(=O)N1CCCC(C(=O)N2CCc3ccccc3C2)C1` (centres undefined) showed a z-score of -0.336.

The compound `CCOc1nnnc2c1sc1nc(N3CCOCC3)c3c(c12)CC(C)(C)OC3` yielded a z-score of 0.0677.

`CCOC(=O)N1CCN(Cc2ccccn2)CC1`: the z-score was 0.486.

`COc1ccc(OC)c2c1sc(=NC(=O)C(C)C)n2C`: the z-score is -0.638.

`O=C(NCN1C(=O)C2C3C=CC(C3)C2C1=O)Nc1nccs1` (centres undefined) yielded a z-score of 0.00383.

Compound `CCn1c(COc2ccc3c(c2)OCO3)nnc1SCC(=O)c1ccccc1` returned a z-score of 0.465.

Turning to `COc1ccc(OC)c(C2CC(=O)c3c([nH]c(C(=O)OC(C)C)c3C)C2)c1` (centres undefined), the z-score was -0.417.

`CCOC(=O)c1c(-c2cccs2)csc1NC(=O)CN1CC(C)OC(C)C1` (centres undefined): the z-score turned out to be 0.866.

`COc1cc([N+](=O)[O-])ccc1NC(=O)COC(=O)c1n[nH]c2ccccc12` registered a z-score of -0.589.

With `CCOC(=O)c1c(-c2cccs2)csc1NC(=O)CCCC(=O)O`, the z-score worked out at 0.175.

Turning to `COCCn1c(=S)[nH]c2ncccc2c1=O`, the z-score amounted to 0.35.

Compound `CC(OC(=O)c1ccccc1Nc1ccc(SC(F)F)cc1)C(N)=O` (centres undefined) came in with a z-score of -0.225.

`CNc1ncc(C(=O)c2ccc(Cl)c(Cl)c2)s1` came in with a z-score of 0.129.

As for `O=S(=O)(Cc1ccccc1Cl)NCCOc1ccccc1`, the z-score stood at 1.83.

`FC(F)(F)C1=CC(c2ccc(Cl)cc2)=NCCN1` had a z-score of 0.132.

In turn, `CCCCNS(=O)(=O)c1ccc(NC(=O)c2c(-c3ccccc3Cl)noc2C)cc1` registered a z-score of 0.0339.

`CCOC(=O)N1CCN(C(=S)Nc2ccccc2C)CC1` came in with a z-score of 0.316.

In turn, `OCCNc1ncnc2ccc(Br)cc12` yielded a z-score of 1.8.

For the compound `O=C(CC1Oc2ccccc2NC1=O)NCCCN1CCN(Cc2ccccc2)CC1` (centres undefined), the z-score is -0.0767.

Turning to `CCOc1ccccc1C(=O)N(CN1CCCC1=O)c1cccc(Cl)c1`, the z-score is -0.453.

Compound `CCCn1c(CN2CCN(c3cccc(Cl)c3)CC2)nc2c1c(=O)n(C)c(=O)n2C` displayed a z-score of -0.255.

The compound `O=[N+]([O-])c1cc(S(=O)(=O)C(F)(F)F)ccc1N1CCN(c2ccccc2)CC1` registered a z-score of -0.869.

`COC(=O)CCC(=O)Nc1ccc(NC(C)=O)cc1` returned a z-score of 0.0981.

The compound `COc1ccc(/C=C/C(=O)Nc2ccc(N3CCOCC3)cc2)cc1` returned a z-score of -0.219.

In turn, `COCCCNC(=O)CN1CCN(Cc2ccc(Cl)cc2)C1=O` returned a z-score of -0.115.

On to `O=C1CC(Sc2ncccn2)C(=O)N1c1ccccc1` (centres undefined), for which the z-score was determined as 0.494.

As for `O=C(Nc1sc2c(c1-c1nc3ccccc3[nH]1)CCCC2)C1CC1`, the z-score is 0.0135.

In turn, `CCOC(=O)N1CCC(NS(=O)(=O)c2ccc3c(c2)CCN3C(C)=O)CC1` showed a z-score of 0.165.

`c1ccc(-c2n[nH]nc2-c2ccccc2)cc1`: the z-score was -1.09.

`CC1CCc2sc(C(=O)N/N=C/c3ccc([N+](=O)[O-])cc3)cc2C1` (centres undefined) yielded a z-score of 0.00376.

`C/C=C/C(=O)OCC(=O)Nc1ccc(F)cc1Cl` gave a z-score of -0.0749.

For `O=C1C=C(c2ccccc2)OC2(CCCC2)O1`, the z-score came to 0.389.

`Cn1c(NCc2ccccc2)nc2c1c(=O)n(Cc1ccc(Br)cc1)c(=O)n2C` gave a z-score of -0.261.

Take `O=C(CC1SC(=Nc2ccc(OC(F)F)cc2)N(CCC2=CCCCC2)C1=O)Nc1ccccc1F` (centres undefined): the z-score turned out to be 0.0938.

Compound `CC(=O)C1=C(O)C(=O)N(CCc2c[nH]c3ccccc23)C1c1ccco1` (centres undefined) yielded a z-score of -0.832.

Consider `CCOc1cc(C=O)c(Br)cc1OC1CCCC1`, for which the z-score amounted to 0.0863.

Regarding `COc1ccccc1N1CCN(/N=C/c2cc(OC)c(O)c(OC)c2)CC1`, the z-score is -0.158.

Regarding `O=C(Nc1ccc(C(F)(F)F)cc1)c1cc(-c2cccnc2)nc2ccc(Br)cc12`, the z-score is -0.0141.

Take `COc1ccc(C(=O)Oc2cccnc2)cc1`: the z-score is -0.173.

With `CC(=O)N1Cc2ccccc2CC1C(=O)O` (centres undefined), the z-score was -0.108.

Take `CC1CCCCN1C(=O)c1ccc(S(=O)(=O)N2CCCCC2C)cc1` (centres undefined): the z-score was determined as 0.00201.

On to `Cc1nc(-c2cccc(NS(C)(=O)=O)c2)cs1`, for which the z-score was -0.0631.

In turn, `O=C(O)C1CCCN1S(=O)(=O)c1cc(Cl)ccc1Cl` (centres undefined) came in with a z-score of -1.31.

In turn, `CC(C)(O)C1=NOC(c2ccccc2)C1` (centres undefined) displayed a z-score of 0.128.

`COc1ccccc1-c1cc(-c2ccc(C)cc2)nc(SCc2nnc(-c3ccccc3)o2)c1C#N` gave a z-score of 0.695.

The compound `O=c1[nH]c2cc(Cl)c([N+](=O)[O-])nc2[nH]1` yielded a z-score of -0.134.

`c1ccc(CNc2nc(-c3cccs3)nc3ccccc23)cc1` showed a z-score of 0.32.

`O=C(Nc1ccc(N2CCOCC2)cc1)C1CCCCC1` came in with a z-score of -0.498.

As to `O=C(CSc1ccc2nnc(-c3ccncc3)n2n1)Nc1ccccc1F`, the z-score was determined as 0.149.

In the case of `CCOc1ccc2nnc(-c3ccc(Br)cc3)n2n1`, the z-score is -0.27.

Regarding `Cc1cccc(Nc2nc3c(S(=O)(=O)c4ccccc4)nnn3c3ccccc23)c1`, the z-score is -0.166.

For the compound `O=C(OCc1nnc(-c2ccccc2)o1)c1ccc2ccccc2n1`, the z-score is -0.761.

Consider `CCOC(=O)C(O)(CC(=O)Nc1cc(F)ccc1C)C(F)(F)F` (centres undefined), for which the z-score was -0.467.

In turn, `O=C(Cn1cccc1C(=O)c1ccccc1)NCc1ccc2c(c1)OCO2` displayed a z-score of 0.0786.

On to `O=S(=O)(Nc1ccc(O)c(Sc2nc3ccccc3s2)c1)c1ccc(F)cc1`, for which the z-score was -0.298.

Compound `COc1cccc(C(=O)n2cnnc2N)c1OC` yielded a z-score of 0.0291.

Compound `Clc1ncccc1-c1nc2ccccc2n1Cc1ccccc1` displayed a z-score of -0.494.

With `C/C(=N/Oc1nc(C)cc(C)n1)c1ccc(F)cc1`, the z-score was -0.115.

`CCOC(=O)c1[nH]c2ccc(F)cc2c1NC(=O)Nc1ccccc1OC` returned a z-score of -0.0906.

Take `CCOC(=O)/C=C1\Nc2ccccc2OC1=O`: the z-score stood at 0.403.

Regarding `Cc1c(O)cc2n(c1=O)-c1ccccc1C2(C)C`, the z-score is -0.203.

`Cc1ccc(C(CC(=O)c2ccco2)SCCO)cc1` (centres undefined): the z-score stood at 0.0617.

The compound `CCc1cc(C(c2cccc(OC)c2)N2CCOCC2)c(NC(=O)c2ccccc2)s1` (centres undefined) displayed a z-score of -2.

`Cn1c2c(c(=O)n(C)c1=O)CN(Cc1ccc3c(c1)OCO3)CN2` showed a z-score of -0.144.

With `CCN(CC)C(=O)N1CCc2ccccc2C1CN1C(=O)c2ccccc2C1=O` (centres undefined), the z-score was -0.00875.

As to `O=C(COC(=O)C1CCN(S(=O)(=O)c2cc([N+](=O)[O-])ccc2Cl)CC1)Nc1ncc(Cl)cc1Cl`, the z-score is -0.225.

In turn, `Cc1ccc(NC(=O)c2cc(N3C(=O)C=CC3=O)ccc2Cl)cc1C` came in with a z-score of -0.0892.

In turn, `Cc1ccc(-c2noc(CCC(=O)NCc3ccc4c(c3)OCO4)n2)cc1` returned a z-score of -0.272.

As to `Cc1c(NS(=O)(=O)c2ccc3c(c2)CCN3C(=O)C2CC2)c(=O)n(-c2ccccc2)n1C`, the z-score is -0.246.

In turn, `CCCCCn1c(=O)[nH]c2cc(C(=O)NCCCN3CCCCC3)ccc2c1=O` displayed a z-score of 0.476.

Turning to `CCOC(=O)C1CCN(S(=O)(=O)c2cc(Cl)c(C)cc2OC)CC1`, the z-score is 0.166.

`O=C(NCc1ccncc1)c1ccc(Cl)c(S(=O)(=O)N2CCOCC2)c1` yielded a z-score of -0.146.

`COc1ccc(CC(=O)Nc2cccc(C(=O)O)c2C)cc1` registered a z-score of 1.16.

As for `O=C(O)c1cccc(Nc2ncnc3c2cnn3-c2ccccc2)c1`, the z-score was -1.14.

In turn, `O=C(CSc1nnc(-c2ccc(Br)o2)n1Cc1ccccc1)c1ccccc1F` returned a z-score of -0.0977.

On to `CC(C)c1nc2oc3ccccc3c(=O)c2c(=O)n1-c1ccccc1`, for which the z-score is -1.85.

For `CCCc1nc2c(=O)n(C)c(=O)[nH]c2n1C`, the z-score is -0.154.

Compound `O=C(CSc1ccc2nnc(-c3ccccc3)n2n1)NCC1CCCO1` (centres undefined) registered a z-score of -1.29.

On to `Cc1cc(C)n(C2CCCCC2OC(=O)c2ccccc2)n1` (centres undefined), for which the z-score was -0.181.

The compound `COc1ccc(S(=O)(=O)Nc2ccccc2C(=O)NCc2ccco2)cc1Br` showed a z-score of 0.0705.

`CC(NC(=O)c1cncc(Br)c1)c1ccc(S(N)(=O)=O)cc1` (centres undefined): the z-score amounted to 0.0712.

`O=C(CSc1nc2c(sc3ccccc32)c(=O)n1Cc1ccco1)NCC1CCCO1` (centres undefined) yielded a z-score of -0.508.

With `COC(=O)c1ccc(CNC(=O)CSc2nc3sc(C)c(C)c3c(=O)n2C)o1`, the z-score was -0.37.

In turn, `N#Cc1c(-c2ccc(Cl)cc2)c(C#N)c(=O)n(N)c1N` had a z-score of -0.392.

In the case of `CNC(=O)c1nn(-c2ccc(C)cc2)ccc1=O`, the z-score came out at 0.09.

`Cc1cc(=O)n2[nH]c(C(=O)O)nc2n1`: the z-score is -0.282.

Take `Cc1ccc(-c2nn(CC(=O)Nc3cccnc3)c(=O)c3ccccc23)cc1`: the z-score is -0.291.

The compound `Cc1ccc(C(=O)NC(=S)Nc2cc(C(F)(F)F)ccc2Cl)cc1` returned a z-score of 0.523.

As to `c1ccc(CCc2nn3c(Cn4cnc5ccccc54)nnc3s2)cc1`, the z-score is -0.199.

In turn, `CCOC(=O)C1=C(CSc2nccn2C)NC(=O)NC1c1cc(C)ccc1C` (centres undefined) showed a z-score of -0.122.

In turn, `CC(C)C(c1nnnn1C1CCCC1)N(C)C1CCCCC1` (centres undefined) displayed a z-score of -0.559.

In turn, `CN1CCN(C(=S)c2ccc([N+](=O)[O-])cc2)CC1` had a z-score of 0.0346.

`COc1ccc(NC(=O)CSc2nnc(CNC(=O)c3ccco3)o2)c(OC)c1` had a z-score of 0.213.

Take `COc1cc(C)nc2nc(SCc3ccccc3)nn12`: the z-score is 0.185.
